Reference: article PMC5239548
Like-named read-outs stand apart in the source and are kept apart here. No constants are given. Whether binding was seen depends on the method and setting. In cells and extracts the contact can be indirect. Some results given as binding are weak or reduced against the parent protein; the word gives no strength. For some of these results: Sequences can lack the tags named with a protein.

The chains behind the UniProt entries cited, without tags or fusion partners. Where a name states a change or a piece, a line headed by the entry shows the natural chain unless it says otherwise.
UniProt Q8NEB9: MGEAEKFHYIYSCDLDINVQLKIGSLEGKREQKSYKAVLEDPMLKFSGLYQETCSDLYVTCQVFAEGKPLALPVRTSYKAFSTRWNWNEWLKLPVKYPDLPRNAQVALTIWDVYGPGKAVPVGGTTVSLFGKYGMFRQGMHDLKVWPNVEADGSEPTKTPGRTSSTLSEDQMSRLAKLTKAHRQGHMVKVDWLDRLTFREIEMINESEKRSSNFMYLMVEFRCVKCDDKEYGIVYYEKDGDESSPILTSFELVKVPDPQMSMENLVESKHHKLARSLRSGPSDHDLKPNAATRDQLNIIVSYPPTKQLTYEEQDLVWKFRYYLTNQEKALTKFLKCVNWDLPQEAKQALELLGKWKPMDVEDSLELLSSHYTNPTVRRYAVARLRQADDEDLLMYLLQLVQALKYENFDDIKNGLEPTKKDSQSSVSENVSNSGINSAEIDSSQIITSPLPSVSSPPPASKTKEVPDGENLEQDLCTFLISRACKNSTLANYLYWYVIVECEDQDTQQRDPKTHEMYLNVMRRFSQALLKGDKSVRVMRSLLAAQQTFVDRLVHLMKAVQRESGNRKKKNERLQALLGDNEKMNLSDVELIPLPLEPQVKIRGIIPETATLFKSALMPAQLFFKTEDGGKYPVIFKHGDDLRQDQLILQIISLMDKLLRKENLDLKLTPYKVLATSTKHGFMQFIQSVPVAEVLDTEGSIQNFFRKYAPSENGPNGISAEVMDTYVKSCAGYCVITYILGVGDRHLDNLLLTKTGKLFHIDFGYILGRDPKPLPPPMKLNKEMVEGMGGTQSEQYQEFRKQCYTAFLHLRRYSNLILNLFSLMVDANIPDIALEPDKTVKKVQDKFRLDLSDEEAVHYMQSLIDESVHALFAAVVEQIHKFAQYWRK
UniProt Q6PF93: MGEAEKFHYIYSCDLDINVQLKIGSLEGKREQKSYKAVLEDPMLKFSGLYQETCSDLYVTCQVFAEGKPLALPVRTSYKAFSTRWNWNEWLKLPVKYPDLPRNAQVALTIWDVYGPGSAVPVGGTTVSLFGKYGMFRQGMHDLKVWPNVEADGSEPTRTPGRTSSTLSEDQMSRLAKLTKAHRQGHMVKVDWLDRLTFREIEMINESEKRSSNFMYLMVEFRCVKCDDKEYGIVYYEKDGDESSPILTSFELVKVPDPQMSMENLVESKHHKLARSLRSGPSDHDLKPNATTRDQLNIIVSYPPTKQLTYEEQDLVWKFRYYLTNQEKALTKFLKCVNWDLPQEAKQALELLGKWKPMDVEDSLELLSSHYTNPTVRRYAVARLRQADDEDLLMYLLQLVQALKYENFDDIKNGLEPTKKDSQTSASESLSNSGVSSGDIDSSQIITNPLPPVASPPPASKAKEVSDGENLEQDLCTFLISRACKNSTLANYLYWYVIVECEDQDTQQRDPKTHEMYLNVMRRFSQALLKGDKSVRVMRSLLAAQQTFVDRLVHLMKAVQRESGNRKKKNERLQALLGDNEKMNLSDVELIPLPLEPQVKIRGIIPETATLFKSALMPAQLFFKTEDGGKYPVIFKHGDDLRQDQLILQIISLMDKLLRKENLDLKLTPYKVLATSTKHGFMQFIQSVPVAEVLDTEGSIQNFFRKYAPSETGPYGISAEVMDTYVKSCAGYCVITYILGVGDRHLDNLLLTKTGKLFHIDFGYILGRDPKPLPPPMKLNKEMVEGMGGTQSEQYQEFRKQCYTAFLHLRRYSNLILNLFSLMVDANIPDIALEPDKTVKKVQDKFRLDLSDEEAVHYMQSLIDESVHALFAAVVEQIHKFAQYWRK
UniProt Q61037: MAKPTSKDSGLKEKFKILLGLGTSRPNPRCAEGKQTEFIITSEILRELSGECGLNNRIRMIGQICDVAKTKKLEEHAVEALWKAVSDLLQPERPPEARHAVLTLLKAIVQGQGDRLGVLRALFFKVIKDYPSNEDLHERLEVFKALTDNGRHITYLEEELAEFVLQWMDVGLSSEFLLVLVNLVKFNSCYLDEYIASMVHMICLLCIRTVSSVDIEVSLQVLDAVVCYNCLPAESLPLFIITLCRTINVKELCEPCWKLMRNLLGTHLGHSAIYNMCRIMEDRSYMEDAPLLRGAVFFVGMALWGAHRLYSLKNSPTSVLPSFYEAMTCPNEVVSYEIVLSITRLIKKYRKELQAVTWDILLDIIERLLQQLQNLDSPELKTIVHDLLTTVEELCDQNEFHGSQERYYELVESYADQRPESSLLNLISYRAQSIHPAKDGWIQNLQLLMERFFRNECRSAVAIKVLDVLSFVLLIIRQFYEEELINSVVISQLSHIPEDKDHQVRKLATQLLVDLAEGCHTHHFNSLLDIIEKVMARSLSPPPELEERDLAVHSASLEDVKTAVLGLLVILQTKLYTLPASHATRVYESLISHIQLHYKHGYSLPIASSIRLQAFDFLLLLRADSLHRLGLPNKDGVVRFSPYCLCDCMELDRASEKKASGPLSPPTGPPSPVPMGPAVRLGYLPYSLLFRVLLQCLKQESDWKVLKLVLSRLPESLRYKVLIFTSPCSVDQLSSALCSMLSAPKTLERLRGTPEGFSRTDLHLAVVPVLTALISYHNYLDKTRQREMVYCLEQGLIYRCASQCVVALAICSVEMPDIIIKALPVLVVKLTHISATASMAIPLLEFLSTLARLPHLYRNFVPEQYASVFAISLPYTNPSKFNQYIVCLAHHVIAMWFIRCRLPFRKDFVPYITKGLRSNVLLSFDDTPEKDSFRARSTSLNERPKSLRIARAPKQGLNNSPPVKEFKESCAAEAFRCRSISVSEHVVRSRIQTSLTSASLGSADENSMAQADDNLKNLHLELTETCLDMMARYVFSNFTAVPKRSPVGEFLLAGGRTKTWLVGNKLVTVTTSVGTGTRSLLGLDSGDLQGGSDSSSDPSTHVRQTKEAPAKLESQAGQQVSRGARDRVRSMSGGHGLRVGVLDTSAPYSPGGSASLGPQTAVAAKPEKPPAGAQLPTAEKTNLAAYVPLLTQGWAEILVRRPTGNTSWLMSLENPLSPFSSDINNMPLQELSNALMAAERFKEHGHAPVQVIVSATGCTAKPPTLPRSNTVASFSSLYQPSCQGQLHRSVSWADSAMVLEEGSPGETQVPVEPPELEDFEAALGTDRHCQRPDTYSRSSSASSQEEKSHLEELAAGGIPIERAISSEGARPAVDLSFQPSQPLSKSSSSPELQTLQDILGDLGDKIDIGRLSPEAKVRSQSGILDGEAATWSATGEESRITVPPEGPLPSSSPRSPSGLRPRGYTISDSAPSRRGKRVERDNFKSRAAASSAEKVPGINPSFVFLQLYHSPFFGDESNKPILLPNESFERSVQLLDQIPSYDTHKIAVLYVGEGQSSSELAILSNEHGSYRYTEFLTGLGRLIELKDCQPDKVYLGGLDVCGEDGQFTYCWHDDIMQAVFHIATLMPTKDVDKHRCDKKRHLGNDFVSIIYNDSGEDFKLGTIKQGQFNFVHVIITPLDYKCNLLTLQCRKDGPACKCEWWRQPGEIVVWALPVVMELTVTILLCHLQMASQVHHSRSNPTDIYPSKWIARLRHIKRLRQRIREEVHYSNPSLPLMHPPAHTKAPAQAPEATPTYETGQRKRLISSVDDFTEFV
UniProt Q9Z1T6: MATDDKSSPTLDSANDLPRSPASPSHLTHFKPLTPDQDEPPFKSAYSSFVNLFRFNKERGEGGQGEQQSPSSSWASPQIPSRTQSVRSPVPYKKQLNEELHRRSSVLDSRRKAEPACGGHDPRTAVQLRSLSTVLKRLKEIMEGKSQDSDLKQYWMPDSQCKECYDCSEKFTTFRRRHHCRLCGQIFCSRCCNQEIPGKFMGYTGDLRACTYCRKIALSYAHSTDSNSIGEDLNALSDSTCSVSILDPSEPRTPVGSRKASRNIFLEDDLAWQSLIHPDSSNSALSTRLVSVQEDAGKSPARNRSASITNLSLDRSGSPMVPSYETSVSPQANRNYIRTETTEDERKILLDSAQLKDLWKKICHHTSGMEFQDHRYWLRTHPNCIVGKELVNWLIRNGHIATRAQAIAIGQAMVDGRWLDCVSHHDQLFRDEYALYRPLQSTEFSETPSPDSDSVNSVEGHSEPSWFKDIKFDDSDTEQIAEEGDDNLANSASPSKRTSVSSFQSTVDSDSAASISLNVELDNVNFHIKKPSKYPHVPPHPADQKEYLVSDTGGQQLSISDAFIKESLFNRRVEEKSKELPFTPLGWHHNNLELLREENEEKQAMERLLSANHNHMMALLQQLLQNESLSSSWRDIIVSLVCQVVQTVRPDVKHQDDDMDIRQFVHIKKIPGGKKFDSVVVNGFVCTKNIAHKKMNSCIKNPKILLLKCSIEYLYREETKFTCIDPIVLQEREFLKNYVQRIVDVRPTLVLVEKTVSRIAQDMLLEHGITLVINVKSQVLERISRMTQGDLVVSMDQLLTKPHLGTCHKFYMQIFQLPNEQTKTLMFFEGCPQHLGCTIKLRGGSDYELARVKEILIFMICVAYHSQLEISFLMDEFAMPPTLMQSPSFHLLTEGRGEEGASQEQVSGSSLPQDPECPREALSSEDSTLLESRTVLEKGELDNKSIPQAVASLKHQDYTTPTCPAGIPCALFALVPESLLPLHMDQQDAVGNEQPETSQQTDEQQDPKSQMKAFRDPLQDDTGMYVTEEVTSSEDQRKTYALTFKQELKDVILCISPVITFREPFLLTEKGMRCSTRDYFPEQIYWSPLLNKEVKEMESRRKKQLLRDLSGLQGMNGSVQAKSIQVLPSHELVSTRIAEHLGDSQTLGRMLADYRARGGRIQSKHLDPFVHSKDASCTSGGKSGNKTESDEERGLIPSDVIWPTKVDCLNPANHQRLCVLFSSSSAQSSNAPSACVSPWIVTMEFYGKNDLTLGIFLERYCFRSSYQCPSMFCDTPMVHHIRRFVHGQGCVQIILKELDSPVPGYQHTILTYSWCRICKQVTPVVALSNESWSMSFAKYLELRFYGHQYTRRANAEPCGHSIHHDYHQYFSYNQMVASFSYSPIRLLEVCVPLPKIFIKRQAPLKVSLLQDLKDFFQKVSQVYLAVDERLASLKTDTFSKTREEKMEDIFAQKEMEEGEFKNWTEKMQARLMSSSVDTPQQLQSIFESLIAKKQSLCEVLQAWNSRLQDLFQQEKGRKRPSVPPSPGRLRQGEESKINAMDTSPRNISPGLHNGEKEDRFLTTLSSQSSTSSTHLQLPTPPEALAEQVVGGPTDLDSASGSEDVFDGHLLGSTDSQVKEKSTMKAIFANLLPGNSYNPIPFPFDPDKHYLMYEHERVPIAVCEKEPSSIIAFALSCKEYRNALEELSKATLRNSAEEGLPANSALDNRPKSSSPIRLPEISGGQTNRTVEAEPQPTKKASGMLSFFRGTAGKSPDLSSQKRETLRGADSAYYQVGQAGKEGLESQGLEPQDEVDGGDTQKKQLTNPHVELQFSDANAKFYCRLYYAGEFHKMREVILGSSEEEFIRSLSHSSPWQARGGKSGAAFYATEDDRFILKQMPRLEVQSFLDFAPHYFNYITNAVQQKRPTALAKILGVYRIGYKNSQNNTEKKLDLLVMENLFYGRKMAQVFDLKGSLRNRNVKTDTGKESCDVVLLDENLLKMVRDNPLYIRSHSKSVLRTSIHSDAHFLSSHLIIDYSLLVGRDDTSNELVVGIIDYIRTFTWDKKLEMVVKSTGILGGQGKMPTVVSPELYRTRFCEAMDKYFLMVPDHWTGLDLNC

B1: Myc-TSC1 (protein, UniProt Q92574 1-1164)
chain: MAQQANVGELLAMLDSPMLGVRDDVTAVFKENLNSDRGPMLVNTLVDYYLETSSQPALHILTTLQEPHDKHLLDRINEYVGKAATRLSILSLLGHVIRLQPSWKHKLSQAPLLPSLLKCLKMDTDVVVLTTGVLVLITMLPMIPQSGKQHLLDFFDIFGRLSSWCLKKPGHVAEVYLVHLHASVYALFHRLYGMYPCNFVSFLRSHYSMKENLETFEEVVKPMMEHVRIHPELVTGSKDHELDPRRWKRLETHDVVIECAKISLDPTEASYEDGYSVSHQISARFPHRSADVTTSPYADTQNSYGCATSTPYSTSRLMLLNMPGQLPQTLSSPSTRLITEPPQATLWSPSMVCGMTTPPTSPGNVPPDLSHPYSKVFGTTAGGKGTPLGTPATSPPPAPLCHSDDYVHISLPQATVTPPRKEERMDSARPCLHRQHHLLNDRGSEEPPGSKGSVTLSDLPGFLGDLASEEDSIEKDKEEAAISRELSEITTAEAEPVVPRGGFDSPFYRDSLPGSQRKTHSAASSSQGASVNPEPLHSSLDKLGPDTPKQAFTPIDLPCGSADESPAGDRECQTSLETSIFTPSPCKIPPPTRVGFGSGQPPPYDHLFEVALPKTAHHFVIRKTEELLKKAKGNTEEDGVPSTSPMEVLDRLIQQGADAHSKELNKLPLPSKSVDWTHFGGSPPSDEIRTLRDQLLLLHNQLLYERFKRQQHALRNRRLLRKVIKAAALEEHNAAMKDQLKLQEKDIQMWKVSLQKEQARYNQLQEQRDTMVTKLHSQIRQLQHDREEFYNQSQELQTKLEDCRNMIAELRIELKKANNKVCHTELLLSQVSQKLSNSESVQQQMEFLNRQLLVLGEVNELYLEQLQNKHSDTTKEVEMMKAAYRKELEKNRSHVLQQTQRLDTSQKRILELESHLAKKDHLLLEQKKYLEDVKLQARGQLQAAESRYEAQKRITQVFELEILDLYGRLEKDGLLKKLEEEKAEAAEAAEERLDCCNDGCSDSMVGHNEEASGHNGETKTPRPSSARGSSGSRGGGGSSSSSSELSTPEKPPHQRAGPFSSRWETTMGEASASIPTTVGSLPSSKSFLGMKARELFRNKSESQCDEDGMTSSLSESLKTELGKDLGVEAKIPLNLDGPHPSPPTPDSVGQLHIMDYNETHHEHS
B2: endogenous TSC1 of NIH3T3 cells (protein, UniProt Q9EP53 1-1161)
chain: MAQLANIGELLSMLDSSTLGVRDDVTAIFKESLNSERGPMLVNTLVDYYLETNSQPVLHILTTLQEPHDKHLLDKINEYVGKAATRLSILSLLGHVVRLQPSWKHKLSQAPLLPSLLKCLKMDTDVVVLTTGVLVLITMLPMIPQSGKQHLLDFFDIFGRLSSWCLKKPGHVTEVYLVHLHASVYALFHRLYGMYPCNFVSFLRSHYSMKENVETFEEVVKPMMEHVRIHPELVTGSKDHELDPRRWKTLETHDVVIECAKISLDPTEASYEDGYSVSHQLSACFPYRSADVTTSPYVDTQNSYGGSTSTPSSSSRLMLFSPPGQLPQSLSSPSTRLLPEPLQASLWSPSAVCGMTTPPTSPGNVPADLSHPYSKAFGTTAGGKGTPSGTPATSPPPAPPCPQDDCVHGSAAQASATAPRKEERADSSRPYLHRQSNDRGLEDPPGSKGSVTLRNLPDFLGDLASEEDSIEKDKEEAAISKELSEITTAEADPVVPRGGFDSPFYRDSLSGSQRKTHSAASGTQGSSVNPEPLHSSLDKHGPDTPKQAFTPIDPPSGSADVSPAGDRDRQTSLETSILTPSPCKIPPQRGVSFGSGQLPPYDHLFEVALPKTACHFVSKKTEELLKKVKGNPEEDCVPSTSPMEVLDRLIEQGAGAHSKELSRLSLPSKSVDWTHFGGSPPSDELRTLRDQLLLLHNQLLYERFKRQQHALRNRRLLRKVIRAAALEEHNAAMKDQLKLQEKDIQMWKVSLQKEQARYSQLQEQRDTMVTQLHSQIRQLQHDREEFYNQSQELQTKLEDCRNMIAELRVELKKANNKVCHTELLLSQVSQKLSNSESVQQQMEFLNRQLLVLGEVNELYLEQLQSKHPDTTKEVEMMKTAYRKELEKNRSHLLQQNQRLDASQRRVLELESLLAKKDHLLLEQKKYLEDVKSQASGQLLAAESRYEAQRKITRVLELEILDLYGRLEKDGRLRKLEEDRAEAAEAAEERLDCCSDGCTDSLVGHNEEASGHNGETRTSRPGGTRASCGGRVTGGSSSSSSELSTPEKPPSQRFSSRWEPALGEPSSSIPTTVGSLPSSKSFLGMKARELFRNKSESQCDEDSVTMSSSSLSETLKTELGKDSGTENKTSLSLDAPHPSSPNSDNVGQLHIMDYNETHPEHS

What was measured:
[1] = target: Myc-VPS34-H868R (pcDNA3-Myc-VPS34-H868R), expressed in NIH3T3 cells (human) (UniProt Q8NEB9); test: co-IP; NIH3T3 cells transiently transfected with Myc-VPS34 constructs; anti-Myc immunoprecipitation; endogenous TSC1 or TSC2 detected by Western blot
[2] = target: Myc-VPS34-WT (pcDNA3-Myc-hVPS34), expressed in NIH3T3 cells (human) (UniProt Q8NEB9); test: as above
[3] = target: endogenous VPS34 of NIH3T3 cells (mouse (endogenous in NIH3T3)) (UniProt Q6PF93); test: co-IP; NIH3T3 WCL, endogenous proteins; immunoprecipitation with anti-VPS34 antibody (or control IgG); TSC1, TSC2, PIKFYVE detected by Western blot; also in cells transfected with PIKFYVE siRNA for 48h
[4] = target: Myc-VPS34-H868R (pcDNA3-Myc-VPS34-H868R), expressed in COS-7 cells (human) (UniProt Q8NEB9); test: co-IP; COS-7 cells transiently co-transfected with Myc-TSC1 and Myc-VPS34 constructs; immunoprecipitation with anti-VPS34 antibody; detection with anti-Myc antibody
[5] = target: Myc-VPS34-WT (pcDNA3-Myc-hVPS34), expressed in COS-7 cells (human) (UniProt Q8NEB9); test: as above
[6] = target: endogenous TSC2 of NIH3T3 cells (mouse (endogenous in NIH3T3)) (UniProt Q61037); test: co-IP; NIH3T3 WCL, endogenous proteins; immunoprecipitation with anti-TSC2 antibody; TSC1 detected by Western blot
[7] = target: endogenous VPS34 of NIH3T3 cells (mouse (endogenous in NIH3T3)) (UniProt Q6PF93); test: co-IP; NIH3T3 WCL, endogenous proteins; immunoprecipitation with anti-VPS34 antibody (or control IgG); TSC1, TSC2, PIKFYVE detected by Western blot; also in cells transfected with PIKFYVE siRNA for 48h; remark: listed apart in the source

| Molecule | binding [1] | binding [2] | binding [3] | binding [4] | binding [5] | binding [6] | binding [7] |
| --- | --- | --- | --- | --- | --- | --- | --- |
| endogenous TSC2 of NIH3T3 cells (from UniProt Q61037 1-1814) | no binding | no binding | no binding | – | – | – | – |
| endogenous PIKFYVE of NIH3T3 cells (from UniProt Q9Z1T6 1-2097) (enzyme) | – | – | binds | – | – | – | – |
| B1 | – | – | – | binds | binds | – | – |
| B2 | binds | binds | – | – | – | binds | binds |
